# Results reported in article PMC6919601, “Identification of Plasmodium dipeptidyl aminopeptidase allosteric inhibitors by high throughput screening” (PLoS ONE, 2019).
# Several values for one entry are separate records, joined by “and”; a condition that tells them apart may be missing. Equal entries are not always repeated. Among all 110,000 compounds or so, about 230 (0.21%) showed an effect of 50% or more. This is one part of the list.
# Target: DPAP1 (Plasmodium falciparum, UniProt Q8IIJ9)
# Test: primary screen, percent inhibition; read by cleavage of a fluorogenic dipeptide substrate; higher = more effect of the substance
# Design: species or system P. falciparum D10 trophozoite lysates; single well
# 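Also: 30 min substrate incubation versus DMSO and 10 µM JCP410 controls.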
# Sequence of DPAP1 (Q8IIJ9 whole entry, looked up): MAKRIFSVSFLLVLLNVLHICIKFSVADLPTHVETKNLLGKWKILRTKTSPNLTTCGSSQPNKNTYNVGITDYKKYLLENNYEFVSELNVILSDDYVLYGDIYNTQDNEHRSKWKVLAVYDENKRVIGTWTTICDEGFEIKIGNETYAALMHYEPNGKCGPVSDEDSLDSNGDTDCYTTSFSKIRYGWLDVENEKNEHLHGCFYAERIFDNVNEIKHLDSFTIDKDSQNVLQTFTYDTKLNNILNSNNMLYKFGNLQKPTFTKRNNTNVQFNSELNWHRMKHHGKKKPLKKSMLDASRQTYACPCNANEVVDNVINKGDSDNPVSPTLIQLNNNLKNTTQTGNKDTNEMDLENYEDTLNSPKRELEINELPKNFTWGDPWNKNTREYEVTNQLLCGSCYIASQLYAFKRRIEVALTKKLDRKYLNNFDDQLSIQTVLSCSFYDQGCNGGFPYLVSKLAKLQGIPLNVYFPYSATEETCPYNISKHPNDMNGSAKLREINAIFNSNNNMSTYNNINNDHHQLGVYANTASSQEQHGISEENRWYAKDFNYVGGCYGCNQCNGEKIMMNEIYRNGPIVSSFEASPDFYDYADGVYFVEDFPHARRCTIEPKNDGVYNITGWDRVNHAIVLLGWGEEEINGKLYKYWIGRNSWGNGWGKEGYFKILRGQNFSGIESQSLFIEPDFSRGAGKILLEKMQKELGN
row,SMILES,% Inhibition @ 10 uM
1,CCN(CC)C(=O)C1CCCN(Cc2cccc(C(F)(F)F)c2)C1 (stereo not drawn),-1.86%
2,COC(=O)c1ccc(-c2ccco2)[nH]1,1.63%
3,CC1CCCN(C(=O)CCCOc2ccc(Cl)cc2Cl)C1 (stereo not drawn),-5.18%
4,O=C(O)C1C2C=CC(C2)C1C(=O)Nc1ccccc1Br (stereo not drawn),-6.22%
5,Cn1c(=O)c2c(-c3ccccc3)n(Cc3ccccc3)cc2n(C)c1=O,-7.17%
6,O=C(NCCc1c[nH]c2ccc(OCc3ccccc3)cc12)c1ccco1,4.93%
7,O=S(=O)(NCCc1ccncc1)c1ccc(Br)cc1,-5.58%
8,Cc1cc(C)n(C(C)CC(=O)NCCc2ccc(Cl)cc2)n1 (stereo not drawn),0.762%
9,CCC1CCc2c(sc(NC(=O)CCc3ccccc3)c2C(N)=O)C1 (stereo not drawn),2.36%
10,O=C(O)[C@H](Cc1ccc(O)cc1)N1C(=O)c2ccccc2C1=O,2.39%
11,Cc1cccc(-c2nc(CS(=O)CC(=O)NCC3CCCO3)c(C)o2)c1 (stereo not drawn),-1.05%
12,Cc1ccc(C(=O)Nc2cccc(NC(=O)c3ccc(C)cc3)n2)cc1,3.57%
13,Cc1ccc(C2c3c(oc4ccccc4c3=O)C(=O)N2c2nnc(C(C)C)s2)cc1 (stereo not drawn),1.19%
14,COc1ccc(C(=O)c2ccc(Br)cc2)cc1,0.912%
15,Cc1ccccc1-c1nnc(SCC(=O)N2CC(C)CC(C)C2)o1 (stereo not drawn),5.1%
16,O=c1c2c(ncn1Cc1ccccc1)nc1n2CCC1,0.634%
17,COc1ccc(/C=C2\N=C(c3ccc(C(C)(C)C)cc3)OC2=O)cc1,-1.51%
18,COc1ccc(/C=C2/NC(=S)NC2=O)cc1,1.7%
19,Cc1cc(O)c(C2=NCCSC(c3ccc(O)cc3)C2)c(=O)o1 (stereo not drawn),4.89%
20,CCCc1cc(C(=O)Nc2c(C)nn(Cc3ccccc3C)c2C)no1,-7.23%
21,CCOc1ccc2nc(N3CCC(C(=O)NC(C)C45CC6CC(CC(C6)C4)C5)CC3)sc2c1 (stereo not drawn),-1.58%
22,c1ccc(-c2cnn3c(-c4ccccc4)cnc3n2)cc1,-1.99%
23,CC1(C)OC(=O)C(C#N)=C1/C=C/c1ccco1,-1.22%
24,Cc1c(C)n(CCN(C)C)c2ccc(C(=O)OCCN(C)C)cc12,-1.77%
25,CCOC(=O)c1c(-c2ccccc2)oc2ccc(OCC(=O)O)cc12,6.22%
26,C=CCNC(=O)C1CCCN(S(=O)(=O)N2CCN(C(=O)OCC)CC2)C1 (stereo not drawn),0.387%

row,SMILES,% Inhibition @ 10 uM
1,COc1cc(CN2CCN(Cc3cccc(OC)c3OC)CC2)cc(OC)c1,-0.564%
2,CC(Oc1ccccc1)C(=O)Nc1nnc(-c2ccc3c(c2)OCO3)s1 (stereo not drawn),1.58%
3,Cc1cccc2c1-c1sc(C(=O)Nc3cnc4ccccc4c3)cc1CO2,-1.37%
4,Cc1nc2cccnc2n1-c1ccc(CC(=O)NCc2ccc3c(c2)OCO3)cc1,8.76%
5,Cn1c(=O)c2c(nc(SCC(=O)NC(C)(C)C)n2Cc2ccccc2Cl)n(C)c1=O,0.746%
6,CCC(C#N)OC(=O)[C@H](CC(C)C)NC(=O)OCc1ccccc1 (stereo partly drawn),3.19%
7,COc1ccc(C2C(C(=O)Nc3cccnc3)=C(C)Nc3nc(CCCO)nn32)cc1OC (stereo not drawn),3.81%
8,Cc1cc2nnc(SCC(=O)NCc3ccc4c(c3)OCO4)n2c2ccccc12,1.84%
9,CCOc1ccc2nc(NC(=O)CCn3cccc3)sc2c1,-2.67%
10,CC(C)COc1ccc(C(=O)NC(CC(=O)O)c2ccccc2)cc1 (stereo not drawn),0.222%
11,COc1ccc(C)cc1-n1nnc(-c2nc(-c3ccc4c(c3)OCO4)no2)c1N,4.98%
12,CC(C)c1ccc2[nH]c(-c3ccc(N)cc3)nc2c1,-4.54%
13,CCOc1ccc(CC/N=C2\C=C(O)OC23CCCCC3)cc1OCC,-3.5%
14,Oc1cccc(CN2CCN(c3ccccc3)CC2)c1,3.1%
15,N#Cc1ccc(Oc2ccc3c4c(cccc24)C(=O)C3=O)cc1,7.35%
16,O=C1c2cccnc2C(O)N1Cc1ccc(F)cc1 (stereo not drawn),-2.88%
17,C=CCOc1ccc(CNc2nccs2)cc1OCC,-3.43%
18,CCCn1c(=N)n(CC(O)c2ccc(Br)cc2)c2ccccc21 (stereo not drawn),3.86%
19,COc1ccc(-c2noc(CN(C(=O)C(C)Oc3ccc(Br)cc3)C(C)C)n2)cc1 (stereo not drawn),5.29%
20,O=C(O)CSc1nc2c(cnn2-c2ccccc2)c(=O)n1-c1ccccc1,2.36%
21,CCN(CC)CCN(C)C1CCCCCC1,-1.21%
22,CCOC(=O)c1sc(NC(=O)c2cc(-c3ccc(OC)c(OC)c3)nc3ccccc23)nc1C,-3.02%
23,OCc1cccc[n+]1CCc1ccccc1,1.02%
24,COC(=O)CC(C)NC(C)Cc1ccccc1 (stereo not drawn),13.7%
25,CCOC(=O)C1=C(C)N=c2s/c(=C\c3cc(Cl)ccc3O)c(=O)n2C1c1ccccc1 (stereo not drawn),33.5%
26,COc1cc(/C=C2/C(=O)CNC2=O)ccc1O,-0.902% and -6.87%

row,SMILES,% Inhibition @ 10 uM
1,COc1ccc2oc(=O)c(C(=O)Nc3nc4ccccc4s3)cc2c1,-2.72%
2,CN1CCN(Cc2nnc(S)n2-c2ccc(F)cc2)CC1,4.17%
3,Cc1cccc(C)c1OCC(=O)Nc1sc(C)c(C)c1C(N)=O,2.32%
4,Cc1ccccc1NC(=O)c1cc(S(=O)(=O)Nc2ccccn2)ccc1Cl,-3.52%
5,CC1CCCCC1NC1CCN(CCc2ccccc2)CC1 (stereo not drawn),-1.21%
6,CCOc1ccc(S(=O)(=O)/N=C2\C=C(NS(=O)(=O)c3ccccc3)C(=O)c3ccccc32)cc1,-3.75%
7,Cc1ccc(Cl)cc1N1CCN(S(=O)(=O)N2CCCCC2)CC1,1.84%
8,Cc1nc2cc(NC(=O)NC3=NCCS3)ccc2n1C,3.74%
9,O=C(CCCOc1ccccc1)NCc1ccco1,-3.65%
10,COc1ccc(C2=NN(C(=O)c3cccc(Cl)c3)C(O)(C(F)(F)F)C2)cc1 (stereo not drawn),2.65%
11,N#CC1=C(N)Oc2[nH]nc(-c3ccc4c(c3)OCO4)c2C1c1ccc(F)c(Br)c1 (stereo not drawn),-6.18%
12,O=C1c2ccccc2C(=O)N1COC1CCCCC1,-7.27%
13,Cc1ccc2nc(Cl)c(C#N)cc2c1,-0.703%
14,NC(=O)C1(N2CCCCC2)CCN(S(=O)(=O)c2ccc(Cl)s2)CC1,1.67%
15,O=C(NCC1CCCO1)c1ccc2c(O)c(S(=O)(=O)c3ccccc3)c(O)nc2c1 (stereo not drawn),-2.84%
16,CC(CNC(=O)c1ccc2nc(N)sc2c1)NC(=O)c1ccc2nc(N)sc2c1 (stereo not drawn),0.777% and 0.163%
17,O=C(Nc1cc(Br)cc2cccnc12)c1ccc(Cl)cc1,1.08%
18,CC(C)NC(=O)C(=O)NCc1ccc(Cl)cc1,1.29%
19,O=C(NCc1ccccc1Cl)C1CCCN(S(=O)(=O)c2ccc(Br)s2)C1 (stereo not drawn),-3.87%
20,Clc1ccc(Cc2nc(-c3ccc(-n4cccc4)cc3)no2)cc1,-6.23%
21,O=C(Nc1cccnc1)C1=Cc2sc3c(c2CS1)CCCC3,2.58%
22,COc1ccc(-c2noc(-c3ccc(Cl)cc3)n2)cc1OC,-10%
23,Oc1nc(CN2CCN(Cc3ccc4c(c3)OCO4)CC2)nc2ccccc12,-1.12%
24,CC(C)C[C@H](Nc1nc(-c2cccc(NC(=O)OCc3ccc(Cl)c(Cl)c3)c2)cs1)C(=O)NCC#N,15.9%
25,FC(F)(F)c1nc2ccccc2n1CCc1ccccc1,0.776%
26,CCN(CC)CCCN(C)C(=O)c1cc2c(s1)-c1c(C)cccc1OC2,-1.37%

row,SMILES,% Inhibition @ 10 uM
1,CO/C(O)=C1/C(C)=NC(=S)NC1c1ccc(C(C)C)cc1 (stereo not drawn),1.43%
2,CCc1ccc(NS(=O)(=O)c2cc(Cl)ccc2Cl)cc1,-0.351%
3,Cc1cc(C(=O)NC(C)C2CC2)c(Cl)cc1Cl (stereo not drawn),1.21%
4,Cc1cccc(OCC(=O)Nc2noc3ccccc23)c1,2.19%
5,CC1CC(C)CN(Cc2nc3c(c(=O)n(C)c(=O)n3C)n2Cc2cccc(Cl)c2)C1 (stereo not drawn),1.23%
6,N#Cc1c(/N=C/c2cc(Cl)cc(Cl)c2O)sc2c1C1CCN2CC1,-1.81%
7,CC(C)CCN1C(=O)c2ccc(C34CC5CC(CC(C5)C3)C4)cc2C1=O,-1.72%
8,Cc1cc(C)c(OCC(=O)N(Cc2sccc2C)C2CCS(=O)(=O)C2)c(C)c1 (stereo not drawn),-2.85%
9,O=C1N=C(Nc2ccc(Br)cc2)S/C1=C1\C(=O)Nc2ccccc21,4.03%
10,CCC1CC2CCN1C([C@@H](O)c1ccnc3ccccc13)C2 (stereo partly drawn),6.77%
11,Cc1ccc(C)c(S(=O)(=O)c2nnn3c2nc(N2CCOCC2)c2ccccc23)c1,1.89%
12,Cc1cc2c(c(=O)n1Cc1cccnc1)C(c1cc3c(cc1Br)OCO3)C(C#N)=C(N)O2 (stereo not drawn),-3.16%
13,O=C(CN(Cc1ccccc1)S(=O)(=O)c1ccc(F)cc1)N1CCCCCC1,1.02%
14,CN(C1CCCCC1)S(=O)(=O)N1CCCC(C(=O)NCCCc2ccccc2)C1 (stereo not drawn),-5.65%
15,COc1ccc(CNc2nc(-c3ccccc3)nn2C(=O)c2ccco2)cc1,-6.71%
16,O=C(NCc1ccco1)c1ccc2ccccc2c1,1.13%
17,Cc1ccc(-c2ccc(=O)n(CCC(=O)NCCN3C(C)CCCC3C)n2)cc1 (stereo not drawn),1.62%
18,COc1ccc(Cl)cc1-n1nnc(-c2nc(-c3ccc4c(c3)OCO4)no2)c1N,0.331%
19,CCCc1cc2c3c(c(=O)oc2cc1O)CCC3,-3.38%
20,CCCCCc1ccc(-c2nc(-c3ccc(Br)cc3)no2)cc1,1.41%
21,O=C(O)c1cnc(-c2ccccc2)nc1N1CCOCC1,5.58%
22,CCCc1cc(O)n2nc(-c3cccc(Br)c3)cc2n1,-4.82%
23,Cc1nc2c(-c3ccc(F)cc3)c(C)nn2c(C)c1CCC(=O)NC1CCCC1,-2.25%
24,Cc1ccccc1-c1ccccc1N,-0.305%
